Experimental data: US20100004180A1, “Agents for the Detection and Modulation of B-Cells and Antibodies” (priority 2008, published 2010)

Tested on: natural IgM
Experiment: ELISA: inhibition of natural IgM (Nab) binding to W-determinants by indole compounds
Conditions: in vitro; compound added into the incubation medium

O=C(O)CCc1nc2ccccc2[nH]1 [2-Benzimidazolepropionic acid]
inhibition of IgM binding to W-determinants: inhibited IgM binding to W determinants to a significant degree
